Reference: PubChem BioAssay AID686979 (National Center for Advancing Translational Sciences (NCATS), 2013)
The whole screen tested about 420,000 compounds, of which about 50,000 (12%) were called active. The inconclusive results got no clear call from the source; some entries with a clear call stand among them for comparison. Calls follow the shape of the dose curve; as a rule, active = well fitted inhibition curve with a large enough effect; inconclusive = small, poorly fitted or top-dose-only effect; inactive = flat fitted curve, though single readings scatter. No potency is given beside an inconclusive call; the fits are too rough.

test: qHTS for Inhibitors of human tyrosyl-DNA phosphodiesterase 1 (TDP1): qHTS in cells in presence of CPT; conditions: chicken DT40 Tdp1-/-;hTDP1 cells + 20 nM CPT, ATP luminescence, 48 h; activity change, negative = growth inhibition: at 46.2 µM (top of the series) unless noted; also: nearly all actives have a fitted effect of over 55% in size
How it was run: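 Chicken DT40 Tdp1-/- cells stably complemented with human TDP1 were seeded at 400 cells/well in medium containing 20 nM camptothecin, exposed to pin-transferred compounds, and grown at 37 °C for at least 48 hr. Viability was read as ATP luminescence.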
% is scaled to controls: 0 for no effect and ±100 for the full control effect; potency is read from the fitted curve at half-maximal effect; tags tell the direction and shape of the fitted curve.

| SMILES | Potency | activity change, negative = growth inhibition |
| --- | --- | --- |
| COc1ccc(NC(=O)CCCOc2ccc(C(C)=O)cc2)cc1S(=O)(=O)N1CCCCC1 | inconclusive [inhibitor, single point] |  |
| CCN(CC)C1=CC(=[N+]2CCCC2)CC(C)(C)C1 | active: 0.517 µM |  |
| Cc1ccc(S(=O)(=O)c2nc(S(C)(=O)=O)sc2N2CCCCC2C)cc1 (stereo not drawn) | inconclusive [inhibitor, single point] |  |
| CC1C(=O)CCCCCCCCCC2C1(N1CCOCC1)CS2(=O)=O (stereo not drawn) | inconclusive [inhibitor, partial curve] |  |
| CCc1ccc(S(=O)(=O)c2nnn3c2nc(Nc2cc(OC)ccc2OC)c2sccc23)cc1 |  | inactive: -12.4% |
| COc1ccc(-c2nc3cnc(N4CCN(C)CC4)nc3n(-c3ccc(OC)cc3)c2=O)cc1 | inconclusive [inhibitor, single point] |  |
| O=C(c1cccs1)N(C(=O)c1cccs1)c1ccc(Br)cn1 | inconclusive [inhibitor, single point] |  |
| CCN(CC)c1ncnc2c1ncn2[C@H]1CN(Cc2ccco2)C[C@@H](CO)O1 | inconclusive [inhibitor, single point] |  |
| COc1ccc(NC(=S)NCCc2c(C)[nH]c3ccc(OC)cc23)cc1 | inconclusive [inhibitor, single point] |  |
| Cc1cc(=O)n(Cc2ccccc2)c(O)c1C#N |  | inactive: -1.61% |
| Cc1ccc(OCCNC(=O)c2cccc(S(=O)(=O)N3CCN(Cc4ccccc4)CC3)c2)cc1 | inconclusive [inhibitor, single point] |  |
| COC(=O)c1nn(-c2ccc3c(c2)CCN3C(C)=O)cc1O | inconclusive [inhibitor, single point] |  |
| COC(=O)c1c(CSc2ccc(C)c(C)c2)noc1C(=O)NCc1ccc(OC)cc1 | inconclusive [inhibitor, single point] |  |
| Cc1ccc(Cl)cc1NC(=O)COC(=O)C12CC3CC(CC(C3)C1)C2 | inactive |  |
| COc1ccc(CCNC(=O)c2cc3c(F)cccc3s2)cc1OC | inconclusive [inhibitor, single point] |  |
| COc1cc(C(=O)NCC2CCCCC2)cc(OC)c1OC | inconclusive [inhibitor, single point] |  |
| CCc1ccc(CN(C)C(=O)c2ccc3c(c2)OCCO3)cc1 |  | inactive: -8.76% |
| Cc1ccc(CCNC(=O)CS(=O)Cc2nc(-c3ccccc3Cl)oc2C)cc1 (stereo not drawn) | inconclusive [inhibitor, single point] |  |
| COc1ccc(S(=O)(=O)N2CCCCC2)cc1NC(=O)c1cc(C)on1 |  | inactive: 0.672% |
| O=C(NCCCNc1ccc(C(F)(F)F)cc1[N+](=O)[O-])c1ccc(Cl)cc1 | inconclusive [inhibitor, single point] |  |
| CCN(CC)c1ncnc2sc(C(=O)N3CCN(c4ccccc4)CC3)c(C)c12 | inconclusive [inhibitor, single point] |  |
| NS(=O)(=O)c1ccc(Nc2nc(-c3cccc([N+](=O)[O-])c3)cs2)cc1 | inconclusive [inhibitor, single point] |  |
| Cc1ccc(N(C(C)C(=O)N2CCN(Cc3ccccc3)CC2)S(C)(=O)=O)cc1 (stereo not drawn) | inconclusive [inhibitor, partial curve, poor fit] |  |

| SMILES | Potency | activity change, negative = growth inhibition |
| --- | --- | --- |
| CN1OC[C@@H]2CN(Cc3ccc(Cl)cc3)[C@H](c3ccc(-n4ccnc4)cc3)C[C@@H]21 | inconclusive [inhibitor, single point] |  |
| Cc1ccc(S(=O)(=O)CCc2ccncc2)cc1 | inconclusive [inhibitor, partial curve] |  |
| CCC(C(=O)OCC(=O)Nc1ccc(OC)cc1OC)c1ccccc1 (stereo not drawn) |  | inactive: 26.2% |
| Cc1cccc2cc(C#N)c(NCCNC(=S)NCCCN3CCOCC3)nc12 | inconclusive [inhibitor, single point] |  |
| COc1ccc(-c2nnc(SC(C(=O)c3c[nH]c4ccccc34)c3ccccc3)n2N)cc1OC (stereo not drawn) | inconclusive [inhibitor, single point] |  |
| O=C(NCC1CCC2(CCN(Cc3c[nH]c4ccccc34)CC2)O1)C1CCOCC1 (stereo not drawn) |  | inactive: -7.87% [at 9.04 µM] |
| COc1ccccc1C(=O)Nc1ccccc1OCc1cc(=O)n2ccccc2n1 | inconclusive [inhibitor, single point] |  |
| COc1ccc(CNC(=O)C(c2cccs2)N(C(=O)c2csnn2)C2CC2)cc1 (stereo not drawn) |  | inactive: -20.9% |
| COc1ccc([N+](=O)[O-])cc1NC(=O)C(C)N(C)Cc1cccc(OC)c1OC (stereo not drawn) | active: 20.6 µM |  |
| O=C(Cc1ccccc1)Nc1sc2c(c1C(=O)Nc1ccc(Br)cc1)CCC2 | inconclusive [inhibitor, single point] |  |
| O=[N+]([O-])c1ccc(N2CCOCC2)cc1NCc1ccccc1 | inconclusive [inhibitor, single point] |  |
| CCc1ccc(CN2CCCC(C(=O)Nc3ccccc3-c3ccc(OC)cc3)C2)o1 (stereo not drawn) | inconclusive [inhibitor, single point] |  |
| Cn1c(=O)cc(OCCCC(=O)NC2CCCC2)c2ccccc21 | inconclusive [inhibitor, single point] |  |
| CCc1ccccc1NC(=S)NCC1CCN(c2ccc(OC)cc2)C1 (stereo not drawn) | inconclusive [inhibitor, single point] |  |
| COc1ccc(-c2cc3c(=O)n(CC(=O)Nc4cccc(Cl)c4)ncn3n2)cc1 |  | inactive: 5.38% |
| O=c1[nH]c2cc3c(cc2cc1CN(Cc1ccco1)C(=S)NCCCN1CCOCC1)OCCO3 | inconclusive [inhibitor, single point] |  |
| Nc1ccc2nc(-c3cccs3)[nH]c2c1 | active: 20.6 µM |  |
| CC(C)(C)c1nc(C(C)(C)C)c(Br)c(=O)[nH]1 | inconclusive [inhibitor, single point] |  |
| O=C1CC(c2cccc([N+](=O)[O-])c2)c2cc3c(cc2N1)CCC3 (stereo not drawn) | active: 18.4 µM |  |
| COc1ccc(S(=O)(=O)NCc2ccc(C(=O)NCCCN3CC(C)CC(C)C3)cc2)cc1 (stereo not drawn) | inconclusive [inhibitor, single point] |  |
| O=C(NCCc1ccccc1)c1nc(-c2ccc(Cl)cc2)n2c1CCCCC2 | active: 11.6 µM |  |
| COc1cccc(N2CC(NC(=O)c3ccc(S(=O)(=O)N4CCOCC4)cc3)CC2=O)c1 (stereo not drawn) | inconclusive [inhibitor, partial curve] |  |
| O=C(CCN1C(=O)/C(=C/c2ccc(F)cc2)SC1=S)Nc1cc([N+](=O)[O-])ccc1O | inconclusive [inhibitor, single point] |  |

| SMILES | Potency | activity change, negative = growth inhibition |
| --- | --- | --- |
| O=C(Nc1ccc(F)cc1)c1csc2c1CCCCC2 | inconclusive [inhibitor, partial curve] |  |
| C=CCNc1cnn(-c2ccccc2)c(=O)c1Cl |  | inactive: -1.88% |
| Cc1cc(C)c2nc(-c3ccccn3)cc(C(=O)N3CCCC3)c2c1 | inconclusive [inhibitor, single point] |  |
| O=C(CS)Nc1ccccc1 | inconclusive [inhibitor, single point] |  |
| Cc1cccc2cc(C#N)c(N3CCN(C)CC3)nc12 | inconclusive [inhibitor, single point] |  |
| O=C(NCc1ccc2c(c1)CCO2)Nc1cccc(C(F)(F)F)c1 |  | inactive: -9.45% |
| O=C(CNC(=S)N(Cc1ccccc1)Cc1ccccc1F)NCc1ccc(Cl)cc1 | inconclusive [inhibitor, single point] |  |
| CN(C)CCN(C(=O)c1ccc2c(c1)CCCC2)c1nc2cc3c(cc2s1)OCCO3 | inconclusive [inhibitor, single point] |  |
| Cc1cc(O)c(C(=O)Cc2csc(C)n2)c(O)c1 |  | inactive: -7.15% |
| COc1ccccc1Cn1c(=S)[nH]c2ccc(Br)cc2c1=O |  | inactive: 3% |
| CCOC(=O)Nc1ccc(OCc2nnc3c4ccccc4c(C)nn23)cc1 | inconclusive [inhibitor, partial curve] |  |
| CCOC(=O)C1CCN(C(=O)C(C)Oc2ccc(C(=O)c3ccccc3)cc2)CC1 (stereo not drawn) | inconclusive [inhibitor, single point] |  |
| CCOc1ccc(S(=O)(=O)N(CC(=O)NCc2cccnc2)c2ccc(F)cc2)cc1 | inconclusive [inhibitor, single point] |  |
| O=C(Nc1cccnc1)c1cc(-c2ccc(Br)cc2)on1 |  | inactive: -29.4% |
| CN(CC(=O)Nc1cccc(F)c1)C(=O)CCCN1C(=O)c2cccc3cccc(c23)C1=O | inconclusive [inhibitor, single point] |  |
| Cc1noc(C)c1NC(=O)N(C)C[C@@H]1Oc2ccc(NS(=O)(=O)c3c(C)noc3C)cc2C(=O)N([C@H](C)CO)C[C@H]1C |  | inactive: -8.2% |
| Cc1ccc(C2Nc3ccccc3-c3nc4ccccc4n32)o1 (stereo not drawn) | inconclusive [inhibitor, partial curve] |  |
| Cn1cc(C(=O)Nc2ccc3c(c2)CCC3)cn1 | inconclusive [inhibitor, partial curve, poor fit] |  |
| O=C(c1ccccc1OCc1ccccc1Br)N1CCN(c2ncccn2)CC1 | inconclusive [inhibitor, single point] |  |
| COc1ccc(CNc2nc3c(-c4ccccc4)nnn3c3ccccc23)cc1 | inconclusive [inhibitor, single point] |  |
| CC(C)(C)OC(=O)N1CCC[C@H]1c1nnc(SCc2cccc(Cl)c2)o1 |  | inactive: -0.791% |
| C#CCn1c(=NC(=O)c2sc3ccccc3c2Cl)sc2cc(S(N)(=O)=O)ccc21 | inconclusive [inhibitor, single point] |  |
